The results in this text go back to the RNAGym collection of RNA variant scans (doi:10.1093/nar/gkz1192).

Read counts are not given, so values of variants with three or more changes are uncertain.

The labels stand for the following.
B1: CPEB3 Ribozyme (parent)
chain: UAACAGGGGGCCACAGCAGAAGCGUUCACGUCGCAGCCCCUGUCAGAUUCUGGUGAAUCUGCGAAUUCUGCUGUAUAUCUC

This data set covers variants of B1. Description: self-cleavage, relative activity (ratio to wild type); higher = more cleavage; in vitro, sequencing. In short, it runs like this: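 Relative activity compares each variant's cleaved/total read fraction with that of the unmutated ribozyme. To get these fractions, barcoded CPEB3 ribozyme libraries from rounds of error-prone PCR were transcribed with T7 RNA polymerase for 5 hours at 37°C and then given 15 min of DNase I treatment before EDTA was added. The RNAs were reverse transcribed with template switching and sequenced on Illumina, and DNA sequencing linked barcodes to variants. A minimum of 5 reads applied, and three batches were averaged.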
On to UAACAGGAGGCCACAGCAGAAGCGUUCACGUCGCAGCCCCUGCCGGAUACUGGUGAAUCUGCGAAUUCUGCUGUAUAUCUC [G8A U43C A45G U49A], for which the self-cleavage is 0.05.
On to UAACAGGAGGCCACAGCAGAAGCGUUCACGUCGCAGCCCCUGUCAGACUCUGGUGAAUCUGCGAAUUCUGCUGUAUAUCAC [G8A U48C U80A], for which the self-cleavage was 0.43.
Turning to UAACAGGCGGCCACAGCAGAAGCGUUCACGUCGCAGCUCCUGUCAGAUUCUGGUGAAUCUGCGAAUUCUGCGGUAUACCUC [G8C C38U U72G U78C], the self-cleavage came out at 0.12.
The figure for UAACAGGAGGCCACAGCAGAAGCGUUCACGUCGCAGCCCCUGUCAGAUUCCAGUGAAUCUGCGAAUUCUGCUGCAUAUCUC [G8A U51C G52A U74C] is 0.28; for UAACAGGAGGCCACAGCAGAAGCGUUCACGUCGCAGCCCCUGUCAGACUCUGGUGAGUCUGCGAAUUCUGCUGUAUAUCUC [G8A U48C A57G] it is 0.09.
Regarding UAACAGGCGGCCACAGCAGAAGCGUUCACGUCGCAGCCCCAGUCAGAUUCUGGUGAAUAUGCGAGUUCUGCUGUAUAUCUC [G8C U41A C59A A65G], the self-cleavage was 0.07.
Turning to UAACAGGCGGCCACAGCAGAAGCGUCCACGUCGCAGCCCCUGUCAGAUUCAGGUGAAUCUGCGAAUUCUGCCGUAUACCUC [G8C U26C U51A U72C U78C], the self-cleavage came out at 0.07.
As for UAACAGGCGGCCACAGCAGAAGCGUUCUCGUCGCAGCCCCUGUCAGAUUCUGGUGAAUCUGCGAACUCUUCUGUAUAUCUC [G8C A28U U66C G70U], the figure is 0.05; as for UAACAGGCGGCCACAGCAGAAGCGUUCACGUCGCAGCCUCUGUCAGAUUCUGGUGAAUCUGCGAAUUCUGCUGUAUAUCCC [G8C C39U U80C], 0.08.
As for UAACAGGAGGCCACAGCAGAAGCGUUCACGUCGCAGCCCCUGUCAGAUUCUGGUGAAUCAGCGGAUUCUGCUGUAUAUCUC [G8A U60A A64G], the figure is 0.07; as for UAACAGGCGGCCACAGCAGAAGCGUUCACGUCGCAGCCCCAGUCAGAUUCUGGUGAACCUGCAAAUUCUGCCGUAUAUCUC [G8C U41A U58C G63A U72C], 0.05; as for UAACAGGAGGCCACAGCAGAAGCGUUCACGUCGCAGCCCCUGACAGAUUCUGGUGGAUCUGCGAAUUCUGCUGUAUAUCUC [G8A U43A A56G], 0.09.
UAACAGGCGGCCACAGCAGAAGCGUUCACGUCGCAGCCCCUGCCAGAUUCUGGUGAAUUCGCGAGUUCUGCUGUAUAUCUC [G8C U43C C59U U60C A65G]: the self-cleavage was 0.2.
In the case of UAACAGGAGGCCACAGCAGAAGCGUUCACGUCGCAGCCCCUGUCAGAUUCUGGUGAAUCUGCGAAGUCUGCUGUAUUUCUC [G8A U66G A77U], the self-cleavage came to 0.07.
The figure for UAACAGGCGGCCACAGCAGAAGCCUUCACGUCGCAGCCCCUGUCAGAUUCUGGUGAAUCUGCGAAUCCAGCUGUAUAUCUC [G8C G24C U67C U69A] is 0.19; for UAACAGGCGGCCACAGCUGAAGCGUUCGCGACGCAGCCCCUGUCAGAUUCUGGUGAAUCCGCGAAUUCUGCUGUAUAUCUC [G8C A18U A28G U31A U60C] it is 0.31; for UAACAGGCGGCCACAGCAGCAGCGUUCACGUCGCAACCCCUGUCAGAUUCUGGUGAAUCUGCGAAUCCUGCUGUAUAUCUC [G8C A20C G36A U67C] it is 0.06.
Consider UAACAGGCGGCCACAGCAGAAGCGUUCACGCCGCAGCCCCUGUCAGAUUCUGGUGAAUCUGCGAAUUCUGCUGUAUAUCCC [G8C U31C U80C], for which the self-cleavage worked out at 0.08.
The figure for UAACAGGAGGCCACAGCAGAAGCGUUCACGUCGCAGCCCCAGUCAGAUUCUGGUGAAUCCGCGAAUUCUGCUGUAUACCUC [G8A U41A U60C U78C] is 0.03; for UAACAGGAGGCCACAGCAGAAGCGUUCACGUCGCAGCCCCCGCCAGAUUCUGGUGAGUCUGCGGAUUCAGCUGUAUGUCUC [G8A U41C U43C A57G A64G U69A A77G] it is 0.07; for UAACAGGCGGCCACAGCAGAAGCGUUCACGCCGCUGCCCCUGUCAGAUUCUGGUGAAUCUGCGAAUUCUGCUGUAUAUCUC [G8C U31C A35U] it is 0.06.
Regarding UAACAGGCGGCCACAGCGGAAGCGUUCACGUCGCAGCCCCUGUCAGGUUCUGGUGACUCUGCGAAUUCUGCUGUAUAUCUC [G8C A18G A47G A57C], the self-cleavage was 0.06.
Turning to UAACAGGAGGCCACAGCAGAAGCGUUCACGUCGCAGCCCCUGUCAGAUUCUGGUGAAGCUGCGGAUUCUGCUGUAUAUGUC [G8A U58G A64G C79G], the self-cleavage is 0.11.
As for UAACAGGAGGCCACAGCAGAAGCGUUCACGUCGCAGCCCCAGUCAGAUUCUGGUGAAUCUGCGAAUUCUGCUGUAUAUCCC [G8A U41A U80C], the figure is 0.35.
Take UAACAGGCGGCCUCAGCAGAAGCGCACACGUCGCAGCCCCCGUCCGAUUCUGGUGACUCUGCGAAUUCUGCUGUAUAUCUC [G8C A13U U25C U26A U41C A45C A57C]: the self-cleavage was 0.04.
As for UAACAGGCGGCCACAGCAGAAGCGUACACGUCGCAGCCCCUGUCAGGUUCUGGUGAAUCUGCGAAUCCCGCUGUAUAUCUC [G8C U26A A47G U67C U69C], the figure is 0.05.
As for UAACAGGCGGCCACAGCAGAAGCGUUCGCGUCGCAGCCCCUGUCAGAUUCUGGUGGCUCUGCGAAUUCUGCUGUAUAUCUC [G8C A28G A56G A57C], the figure is 0.04; as for UAACAGGCGGCCACAGCAGAAGCGUUCACGUCGUAGCCCCUGUCAGAUCCUGGUGAAUCUGCGAAUUCAGCUGUAUAUCUC [G8C C34U U49C U69A], 0.04.
The figure for UAACAGGAGGCCACAGCAGAAGCGUUCACGUCGCAGCCCCUGCCAGAUCCUGGUGAAUCUGCGAAUUCUGCUGUAUAUCUC [G8A U43C U49C] is 0.09; for UAACAGGCGGCCACAGCAGAAGCGUUCACGCCGCAGCCCCUGUCAGAUUCUGGAGAAUCUGCGAAUUCUGCUGUGUAUCUC [G8C U31C U54A A75G] it is 0.07; for UAACAGGCGGCCACAGCAGAAGCGUUCACGUCGUAGCCCCUGUCUGAUACUGGUGAAUCUGCGAAUUCUGCUGUAUAUCUC [G8C C34U A45U U49A] it is 0.07.
As to UAACAGGCGGCCAUAGCAGAAGCGUUCACGUCGCAGCCCCUGUCAGAUUCUGGUGAAUCUGCGAAUUCUGCAGUAUGUCUC [G8C C14U U72A A77G], the self-cleavage is 0.05.
The figure for UAACAGGCGGCCACGGCAGAAGCGUUCACGUCGCAGCCCCAGUCAGAUUCCGGUGAAUCUGCGAAUUCUGCUAUAUAUCUC [G8C A15G U41A U51C G73A] is 0.09.
For UAACAGGCGGCCACAGCGGAAGCGCUCACGUCGCAGCCCCUGUCAGAUUCUGGUGAAUCUGCGAAUUCUGCUGUAUAUCUC [G8C A18G U25C], the self-cleavage worked out at 0.27.
